Sequences and labels used below:
B1: PhoQ; a variant is named by its letters at X, in order, P23837 (parent)
chain: MKKLLRLFFPLSLRVRFLLATAAVVLVLSLAYGMVALIGYSVSFDKTTFRLLRGESNLFYTLAKWENNKLHVELPENIDKQSPTMTLIYDENGQLLWAQRDVPWLMKMIQPDWLKSNGFHEIEADVNDTSLLLSGDHSIQQQLQEVREDDDDAEMTHSVAVNVYPATSRMPKLTIVVVDTIPVELKSSYMVWSWFIYVLSANLLLVIPLLWVAAWWSLRPIEALAKEVRELEEHNRELLNPATTRELTSLVRNLNRLLKSERERYDKYRTTLTDLTHSLKTPLXXLQXXLRSLRSEKMSVSDAEPVMLEQISRISQQIGYYLHRASMRGGTLLSRELHPVAPLLDNLTSALNKVYQRKGVNISLDISPEISFVGEQNDFVEVMGNVLDNACKYCLEFVEISARQTDEHLYIVVEDDGPGIPLSKREVIFDRGQRVDTLRPGQGVGLAVAREITEQYEGKIVAGESMLGGARMEVIFGRQHSAPKDE

The other results are listed elsewhere or left out.

Variants of B1 are the subject of the assay. In words: enrichment ratio after two sorts for PhoP signalling (ratio (wild type AVST 3.29)); higher = more functional. To be noted: with PhoP (E. coli).
For PNDY, the enrichment ratio was ≤ 0.25.

With FDVK, the enrichment ratio was ≤ 0.25.

As to QRTE, the enrichment ratio was ≤ 0.25.

For the variant LVPN, the enrichment ratio is ≤ 0.25.

In the case of HANP, the enrichment ratio is ≤ 0.25.

With GIGG, the enrichment ratio is ≤ 0.25.

Take NGAC: the enrichment ratio was ≤ 0.25.

Regarding MSNT, the enrichment ratio is ≤ 0.25.

For NDSE, the enrichment ratio was ≤ 0.25.

Regarding KQWH, the enrichment ratio was ≤ 0.25.

Consider IILW, for which the enrichment ratio is ≤ 0.25.

On to AHLV, for which the enrichment ratio came to 1.12.

With NRHK, the enrichment ratio was ≤ 0.25.

With KPRH, the enrichment ratio is ≤ 0.25.

As to YKMM, the enrichment ratio is 0.335.

Turning to EDDM, the enrichment ratio is ≤ 0.25.

Turning to PGMD, the enrichment ratio is ≤ 0.25.

Consider FFRY, for which the enrichment ratio is ≤ 0.25.

On to KFFP, for which the enrichment ratio was ≤ 0.25.

TLLT: the enrichment ratio came out at 0.528.

As for RVNV, the enrichment ratio is ≤ 0.25.

On to TSWE, for which the enrichment ratio was 10.9.

TSQT: the enrichment ratio worked out at 2.63.

Regarding RMQW, the enrichment ratio was ≤ 0.25.

GTMD: the enrichment ratio is ≤ 0.25.

With RMKM, the enrichment ratio was ≤ 0.25.

YPDQ: the enrichment ratio is ≤ 0.25.

DHCI: the enrichment ratio is ≤ 0.25.

For QVDF, the enrichment ratio turned out to be 15.1.

For KQVW, the enrichment ratio is ≤ 0.25.

Take TLNF: the enrichment ratio is ≤ 0.25.

As to RMLQ, the enrichment ratio is ≤ 0.25.

As to LCLH, the enrichment ratio is ≤ 0.25.

Consider TISV, for which the enrichment ratio stood at 12.8.

With SHDG, the enrichment ratio stood at 1.66.

With YWWT, the enrichment ratio is ≤ 0.25.

In the case of DTFA, the enrichment ratio stood at 1.11.

Consider QQME, for which the enrichment ratio was ≤ 0.25.

In the case of HNMM, the enrichment ratio was ≤ 0.25.

Turning to TNAW, the enrichment ratio is ≤ 0.25.

On to DQWD, for which the enrichment ratio was ≤ 0.25.

As to EGNN, the enrichment ratio was ≤ 0.25.

As for ATVG, the enrichment ratio was 6.86.

For the variant VTKT, the enrichment ratio is ≤ 0.25.

With SCYR, the enrichment ratio was ≤ 0.25.

With LWIQ, the enrichment ratio is ≤ 0.25.

For the variant IQHL, the enrichment ratio was ≤ 0.25.

Consider AILM, for which the enrichment ratio came to 5.76.

On to LSEF, for which the enrichment ratio is ≤ 0.25.

Turning to YNQL, the enrichment ratio was ≤ 0.25.

For FAWR, the enrichment ratio is ≤ 0.25.

As to MIRE, the enrichment ratio is ≤ 0.25.

On to TRSE, for which the enrichment ratio is ≤ 0.25.

As to WDWE, the enrichment ratio is ≤ 0.25.

Take EEFT: the enrichment ratio was ≤ 0.25.

Regarding VATG, the enrichment ratio is ≤ 0.25.

On to KNWR, for which the enrichment ratio is ≤ 0.25.

AREQ: the enrichment ratio is ≤ 0.25.

ELVD: the enrichment ratio is ≤ 0.25.

Consider NVSQ, for which the enrichment ratio is ≤ 0.25.

Take QWIH: the enrichment ratio was ≤ 0.25.

Take MHTP: the enrichment ratio is ≤ 0.25.

On to QPQV, for which the enrichment ratio was ≤ 0.25.

Take ERQT: the enrichment ratio was ≤ 0.25.

Consider NCKN, for which the enrichment ratio is ≤ 0.25.

Consider PTCQ, for which the enrichment ratio was ≤ 0.25.

AWIA: the enrichment ratio is ≤ 0.25.

With LCEG, the enrichment ratio was ≤ 0.25.

As for CISG, the enrichment ratio is ≤ 0.25.

Turning to FVKV, the enrichment ratio was ≤ 0.25.

As to REAS, the enrichment ratio was ≤ 0.25.

Regarding AMKF, the enrichment ratio is ≤ 0.25.

Consider YIKA, for which the enrichment ratio is ≤ 0.25.

For PWWA, the enrichment ratio was ≤ 0.25.

Take TFWK: the enrichment ratio was ≤ 0.25.

Take TDWN: the enrichment ratio is ≤ 0.25.

Regarding LMMV, the enrichment ratio was ≤ 0.25.

Regarding HFWI, the enrichment ratio is ≤ 0.25.

On to EFAN, for which the enrichment ratio is ≤ 0.25.

For the variant VNFY, the enrichment ratio was ≤ 0.25.

HKVV: the enrichment ratio is ≤ 0.25.

Consider HCHL, for which the enrichment ratio was ≤ 0.25.

Turning to YMIN, the enrichment ratio turned out to be 1.07.

Take MNAW: the enrichment ratio was ≤ 0.25.

Values taken from a collection of fitness landscapes (doi:10.1126/science.1257360).
